Assay results from PubChem BioAssay AID686979 (National Center for Advancing Translational Sciences (NCATS), 2013).
About 50,000 (12%) of roughly 420,000 compounds were called active. The inconclusive results got no clear call from the source; some entries with a clear call stand among them for comparison. Calls follow the shape of the dose curve; as a rule, active = well fitted inhibition curve with a large enough effect; inconclusive = small, poorly fitted or top-dose-only effect; inactive = flat fitted curve, though single readings scatter. Potencies of inconclusive entries are left out as doubtful fits.

Experiment: qHTS for Inhibitors of human tyrosyl-DNA phosphodiesterase 1 (TDP1): qHTS in cells in presence of CPT; also: nearly all actives have a fitted effect of over 55% in size
Details: chicken DT40 Tdp1-/-;hTDP1 cells + 20 nM CPT, ATP luminescence, 48 h; activity change, negative = growth inhibition: at 46.2 µM (top of the series) unless noted
Outline: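 Chicken DT40 Tdp1-/- cells stably complemented with human TDP1 were seeded at 400 cells/well in medium containing 20 nM camptothecin, exposed to pin-transferred compounds, and grown at 37 °C for at least 48 hr. Viability was read as ATP luminescence.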
% is scaled to controls: 0 for no effect and ±100 for the full control effect; potency is read from the fitted curve at half-maximal effect; tags tell the direction and shape of the fitted curve.

SMILES	Potency	activity change, negative = growth inhibition
O=C(CCCCCNC(=S)Nc1ccccc1)C[N+](=O)[O-]	inactive	–
CC(=O)NNC(=S)NCCc1ccccc1	inactive	–
NS(=O)(=O)c1ccc(CCNC(=O)c2ccc(-c3ccccc3)cc2)cc1	–	inconclusive: -23.3% [inhibitor]
CCCCOc1cccc(OCC(=O)Nc2nc3ccccc3[nH]2)c1	active: 20.6 µM	–
O=C(Cn1c2[n+](c3ccc(C(F)(F)F)cc31)CCCCC2)Nc1ccc(Br)cc1	inactive	–
CC(=O)C[C@H]1c2ccccc2S(=O)(=O)N1C1CCCCC1	inconclusive [inhibitor, single point]	–
COc1ccc(C2c3[nH]c4ccccc4c3CCN2C(=O)CCC2CCCC2)cc1 (configuration not stated)	active: 20.6 µM	–
CC1(C(=O)NS(=O)(=O)c2cccc(OC(F)F)c2)CCN1C(=O)C1CCCCC1 (configuration not stated)	inactive	–
CCN(C(=O)c1ccc2c(SCC(=O)O)c3c(nc2c1)CCC3)c1cc(Cl)ccc1OC	inactive	–
CCN(CC)C(=O)c1sc2c(c1C)c(=O)n(-c1ccc(C)c(C)c1)c(=O)n2Cc1cc(=O)n2ccccc2n1	inactive	–
COc1ccc(S(=O)(=O)N2CCCCC2)cc1NC(=O)CCc1nc2ccccc2c(=O)[nH]1	inactive	–
COc1ccc(/C=C\c2nc(O)c([N+](=O)[O-])c(=O)[nH]2)cc1O	inactive	–
Fc1cccc(NC(=S)Nc2cccc3ccccc23)c1	inactive	–
CC1(C(=O)NS(=O)(=O)c2cccs2)CCN1C(=O)C1CC1 (configuration not stated)	inactive	–
COc1ccc(CC(=O)Nc2cc(S(=O)(=O)N3CCCC3)ccc2Cl)c(OC)c1	inconclusive [inhibitor, single point]	–
Cc1ccccc1-n1c(SCC(=O)Nc2ccccc2Cl)nc2n[nH]c(C)c2c1=N	active: 16.4 µM	–
Nc1ccn([C@@H]2O[C@H](CNC(=O)[C@@H](Cc3cccnc3)NC=O)[C@@H](O)[C@H]2O)c(=O)n1	inactive	–
Cc1ccsc1CCN1C(=O)N(c2ccccc2)C(=O)C1CC(=O)Nc1ccc(Cl)cc1 (configuration not stated)	active: 25.9 µM	–
CC(C)COc1cccc(-c2cc(C(=O)N/N=C/c3ccncc3)c3ccccc3n2)c1	active: 9.2 µM	–
COc1ccc(-c2nc3scc(CCNS(=O)(=O)c4ccc(Oc5ccccc5)cc4)n3n2)cc1OC	inconclusive [inhibitor, single point]	–
CCN(CC)C(=O)c1sc2c(c1C)c(=O)n(Cc1ccccc1)c(=O)n2Cc1ccccc1C	inconclusive [inhibitor, single point]	–
COC(=O)C1C(=O)C2=C(CC1C)NC(C)=C(C(=O)OCCOc1ccccc1)C2c1ccc(C)o1 (configuration not stated)	active: 23.1 µM	–
